Experimental data published in patent US20160003808A1, “MOLECULAR TARGETS AND COMPOUNDS, AND METHODS TO IDENTIFY THE SAME, USEFUL IN THE TREATMENT OF DISEASES ASSOCIATED WITH EPITHELIAL MESENCHYMAL TRANSITION” (GALAPAGOS NV, priority 2013, published 2016).

Key:
HBEC [1] = assay: ATPlite secondary toxicity assay; details: 0.06 μM staurosporin
HBEC [2] = assay: CellTiter-Blue (CTB) cell viability assay in on target screen; details: 0.04 μM staurosporin, CTB fluorescence, standard curve

CN[C@@H]1C[C@H]2O[C@@](C)([C@@H]1OC)n1c3ccccc3c3c4c(c5c6ccccc6n2c5c31)C(=O)NC4 [staurosporin]
decrease in cell viability compared to trigger only (HBEC [1]): 30%
decrease in cell viability compared to trigger only cells (HBEC [2]): 30%
